Some of the results follow. Repeats are few or missing, and single values can be far off.
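Further: cell number obtained by counting DAPI-stained nuclei in high-throughput microscope images with image analysis software, screen run in 1,536-well plates.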

The test system of the assay is A101D. The assay can be described thus: cell count relative to DMSO control; melanoma cells; higher = more viable cells. As to conditions: library dose: low library concentration; 72 h.
`OCc1c[nH]c2ccccc12` [Indole-3-carbinol] + COCC[n+]1c2c(n(Cc3cnccn3)c1C)C(=O)c1ccccc1C2=O [YM155] (first compound 0.8 µM, partner dose 0.0004 µM) showed a cell count of 103%.

Compound `OCc1c[nH]c2ccccc12` [Indole-3-carbinol] + C[C@]1(c2nc3c(C(N)=O)cccc3[nH]2)CCCN1 [Veliparib] (first compound 0.8 µM, partner dose 1.4 µM) showed a cell count of 95.7%.

As for `OCc1c[nH]c2ccccc12` [Indole-3-carbinol] + C#Cc1cccc(Nc2ncnc3cc(OCCOC)c(OCCOC)cc23)c1 [erlotinib] (first compound 0.8 µM, partner dose 0.8 µM), the cell count is 91.2%.

Take `C#Cc1cccc(Nc2ncnc3cc(OCCOC)c(OCCOC)cc23)c1` [erlotinib] + Cn1nnc2c(C(N)=O)ncn2c1=O [temozolomide] (first compound 0.8 µM, partner dose 2 µM): the cell count stood at 92.5%.

As for `C#Cc1cccc(Nc2ncnc3cc(OCCOC)c(OCCOC)cc23)c1` [erlotinib] + Cc1nc(Nc2ncc(C(=O)Nc3c(C)cccc3Cl)s2)cc(N2CCN(CCO)CC2)n1 [dasatanib] (first compound 0.8 µM, partner dose 0.004 µM), the cell count is 80%.

The compound `Cn1c(Nc2ccc(C(F)(F)F)cc2)nc2cc(Oc3ccnc(-c4ncc(C(F)(F)F)[nH]4)c3)ccc21` + Cn1nnc2c(C(N)=O)ncn2c1=O [temozolomide] (first compound 0.08 µM, partner dose 2 µM) displayed a cell count of 57.1%.

Compound `COCC[n+]1c2c(n(Cc3cnccn3)c1C)C(=O)c1ccccc1C2=O` + C[C@]1(c2nc3c(C(N)=O)cccc3[nH]2)CCCN1 [Veliparib] (first compound 0.0004 µM, partner dose 1.4 µM) displayed a cell count of 86.2%.

`OCc1c[nH]c2ccccc12` [Indole-3-carbinol] + COc1cc(Nc2ncc(F)c(Nc3ccc4c(n3)NC(=O)C(C)(C)O4)n2)cc(OC)c1OC [Tamatinib] (first compound 0.8 µM, partner dose 0.4 µM) gave a cell count of 84.5%.

`Clc1ccc(Nc2nnc(Cc3ccncc3)c3ccccc23)cc1` [vatalanib] + C[C@@H]1CCN(C(=O)CC#N)C[C@@H]1N(C)c1ncnc2[nH]ccc12 [CP690550] (first compound 2 µM, partner dose 1 µM) yielded a cell count of 81.2%.

Turning to `C#Cc1cccc(Nc2ncnc3cc(OCCOC)c(OCCOC)cc23)c1` [erlotinib] + COCC[n+]1c2c(n(Cc3cnccn3)c1C)C(=O)c1ccccc1C2=O [YM155] (first compound 0.8 µM, partner dose 0.0004 µM), the cell count was 76.7%.

Compound `Clc1ccc(Nc2nnc(Cc3ccncc3)c3ccccc23)cc1` [vatalanib] + COCC[n+]1c2c(n(Cc3cnccn3)c1C)C(=O)c1ccccc1C2=O [YM155] (first compound 2 µM, partner dose 0.0004 µM) came in with a cell count of 89.5%.

In the case of `OCc1c[nH]c2ccccc12` [Indole-3-carbinol] + COc1ccc(Cl)c(Nc2nc3ccccc3nc2NS(=O)(=O)c2cccc(NC(=O)C(C)(C)N)c2)c1 [XL147] (first compound 0.8 µM, partner dose 0.8 µM), the cell count was 91.6%.

Regarding `Nc1cccc2c1CN(C1CCC(=O)NC1=O)C2=O` (stereo unspecified) [lenalidomide] + C[C@]1(c2nc3c(C(N)=O)cccc3[nH]2)CCCN1 [Veliparib] (first compound 1 µM, partner dose 1.4 µM), the cell count worked out at 103%.

For the compound `COCC[n+]1c2c(n(Cc3cnccn3)c1C)C(=O)c1ccccc1C2=O` + O=C(CCCCCCC(=O)Nc1ccccc1)NO [vorinostat] (first compound 0.0004 µM, partner dose 0.08 µM), the cell count worked out at 93.9%.

Take `OCc1c[nH]c2ccccc12` [Indole-3-carbinol] + Cn1c(Nc2ccc(C(F)(F)F)cc2)nc2cc(Oc3ccnc(-c4ncc(C(F)(F)F)[nH]4)c3)ccc21 [CHIR265] (first compound 0.8 µM, partner dose 0.08 µM): the cell count turned out to be 61.1%.

`COCC[n+]1c2c(n(Cc3cnccn3)c1C)C(=O)c1ccccc1C2=O` + Nc1cccc2c1CN(C1CCC(=O)NC1=O)C2=O [lenalidomide] (first compound 0.0004 µM, partner dose 1 µM): the cell count was determined as 91.3%.

For the origin of these results see the supplement of paper PMC4604168 (melanoma cell lines).
